Experimental data taken from PubChem BioAssay AID488969 (Vanderbilt High Throughput Screening Facility, 2010).
Whole data set: some 110,000 compounds, median “z-score” near -0.1, cut for the highest 2% near 2. Some of the results follow.

What follows are molecules tested against Metabotropic glutamate receptor 8 (Rattus norvegicus) (UniProt P70579) (assay: mGluR8 Gi/Go-coupled signaling modulation – cell-based, rat, thallium flux, HTS, primary screen (AID 488969)). Conditions: HEK293 rat mGluR8, GIRK (G protein-gated inwardly rectifying potassium channel) thallium flux, FluoZin2; at 10 µM; stronger effect = higher value; submaximal glutamate (EC20) added with thallium.
UniProt P70579, sequence (P70579 whole entry, looked up): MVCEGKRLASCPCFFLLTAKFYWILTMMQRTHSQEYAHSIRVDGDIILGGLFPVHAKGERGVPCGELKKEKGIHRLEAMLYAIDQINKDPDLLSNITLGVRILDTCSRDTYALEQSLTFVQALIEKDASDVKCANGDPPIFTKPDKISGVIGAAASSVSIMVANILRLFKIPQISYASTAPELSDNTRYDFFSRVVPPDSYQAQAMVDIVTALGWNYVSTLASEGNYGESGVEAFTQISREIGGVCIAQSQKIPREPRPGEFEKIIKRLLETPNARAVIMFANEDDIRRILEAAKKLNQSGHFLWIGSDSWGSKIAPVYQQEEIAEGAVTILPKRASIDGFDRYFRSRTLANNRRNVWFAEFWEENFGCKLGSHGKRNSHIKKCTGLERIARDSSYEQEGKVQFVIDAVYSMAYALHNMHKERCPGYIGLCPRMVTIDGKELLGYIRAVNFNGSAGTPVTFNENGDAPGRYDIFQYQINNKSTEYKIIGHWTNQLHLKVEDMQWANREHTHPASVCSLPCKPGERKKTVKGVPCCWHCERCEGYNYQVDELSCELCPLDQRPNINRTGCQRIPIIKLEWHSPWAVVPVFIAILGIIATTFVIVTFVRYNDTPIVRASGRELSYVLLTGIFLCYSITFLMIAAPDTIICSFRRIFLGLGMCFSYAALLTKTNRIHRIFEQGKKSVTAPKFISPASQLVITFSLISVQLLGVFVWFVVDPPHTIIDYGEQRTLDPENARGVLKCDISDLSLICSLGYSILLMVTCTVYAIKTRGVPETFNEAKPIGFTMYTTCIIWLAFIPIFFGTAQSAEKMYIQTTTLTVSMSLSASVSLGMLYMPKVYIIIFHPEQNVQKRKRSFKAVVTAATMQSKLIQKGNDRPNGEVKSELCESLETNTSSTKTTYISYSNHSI
Work on `CC(=O)Nc1ccc2ccc3cccc4ccc1c2c34` yielded a z-score of 0.0586. `COc1cc(-c2ccc(NC(=O)CN3CCCCC3)c(OC)c2)ccc1NC(=O)CN1CCCCC1` gave a z-score of 0.0379. In the case of `Cc1ccccc1C(=O)NC1CCN(Cc2nnnn2Cc2ccccc2)CC1`, the z-score is reported as 0.0602. `CC(C)(C)c1ccc(/C=C/C(=O)NC2=NCCS2)cc1` showed a z-score of 0.16. Molecule `CN(CC(=O)Nc1ccccc1C(=O)N1CCCC1)S(=O)(=O)c1ccc(Cl)cc1` has a z-score of -0.112. Work on `O=C(NCCSCc1ccccc1)c1ccccc1` yielded a z-score of 0.218. Molecule `Cc1ccc(C(=O)Nc2ccc3c(c2)OCO3)cc1` has a z-score of 0.0712. `O=C(CSc1nnnn1-c1ccccc1)N1CCc2ccccc21` was tested, and the z-score was 0.249. With `O=C(COc1ccccc1Cl)c1ccc2c(c1)CCCC2` the z-score was -0.0996. `CC(C)(C)C(=O)NC(=S)N1CCOCC1` gave a z-score of -0.0566. `O=S(=O)(c1ccc(Cl)c(Cl)c1)N1CCc2nc3ccccc3n2CC1` was tested, and the z-score was 0.0426. Work on `COC(=O)Cc1ccc(NC(=S)NCC(C)C)cc1` yielded a z-score of -0.315. `Cn1cnc(S(=O)(=O)NCc2cccs2)c1` gave a z-score of -0.799. With `Cc1ccc(NC(=O)C2CCCN(S(=O)(=O)c3cnc[nH]3)C2)cc1F` (stereo not drawn) the z-score was -0.00916. `N/C(=N\OC(=O)C1CCCCC1)c1cccnc1` gave a z-score of -0.114. In the case of `COc1ccc(N2C(=O)CSC23CCC(C(C)(C)C)CC3)cc1` (stereo not drawn), the z-score is reported as 0.931. `O=C(CSCCO)N1CCc2ccccc21` showed a z-score of -0.11. For `O=c1[nH]c(N2CCN(c3ccccc3)CC2)nc2c1CCC2`, the z-score was -0.197. In the case of `O=S(=O)(/N=C(/Nc1ccccc1F)c1ccccc1)c1ccccc1`, the z-score is reported as -0.128. In the case of `Cc1ccc(/C=N/NC(=O)C2CCN(Cc3ccc(F)cc3Cl)CC2)o1`, the z-score is reported as -0.0632. In the case of `CC(CN1CCCCC1)OC(=O)c1ccc(Cl)cc1Cl` (stereo not drawn), the z-score is reported as 2.27. Work on `O=C(Cc1ccccc1)NN1C(=O)C2C3C=CC(C4CC34)C2C1=O` (stereo not drawn) yielded a z-score of -0.0404. `COc1cc(CNc2ccccc2SC)cc(OC)c1OC` showed a z-score of -1.26. Molecule `CCOC(=O)Nc1ccc2c(c1)N(C(=O)CCN1CCN(C)CC1)c1ccccc1S2` has a z-score of -0.15. In the case of `COC(=O)C1=C(N)Oc2c(oc(CO)cc2=O)C1c1ccccc1F` (stereo not drawn), the z-score is reported as -0.088. In the case of `O=C(CN1CCc2ccccc21)NC(c1ccccc1)c1ccccc1`, the z-score is reported as 0.798. Molecule `O=C(Cn1nc(-c2ccccc2)ccc1=O)N1CCOCC1` has a z-score of 0.447. For `O=C(O)C1CCCN1S(=O)(=O)c1ccc(Cl)c(Cl)c1` (stereo not drawn), the z-score was -0.451. `Cn1nnc(NC(=S)NC(=O)c2ccco2)n1` was tested, and the z-score was -0.217. `O=C(C1=C(O)C(=O)N(CCc2ccccc2)C1c1cccnc1)c1ccco1` (stereo not drawn) showed a z-score of 0.127. `O=C(NC1CCCC1)C(c1ccc(Cl)cc1)N(Cc1ccc(F)cc1)C(=O)CCl` (stereo not drawn) was tested, and the z-score was -0.0618. Work on `CCOc1ccc(NCCC(=O)c2ccc3c(c2)OCO3)cc1` yielded a z-score of -0.0574. In the case of `CC(C)(C)NC(=O)Nc1ccc2nccnc2c1`, the z-score is reported as 0.111. Work on `COc1ccc(/C=C/C(=O)NCc2cnn(C)c2C)cc1COc1ccc(Br)cc1` yielded a z-score of -0.138. `Cc1ccc(-c2nn3c(C)nnc3c3ccccc23)cc1S(=O)(=O)NCc1ccccc1` showed a z-score of -0.413. In the case of `O=C1OC(Oc2ccccc2)(c2ccccc2)c2ccccc21` (stereo not drawn), the z-score is reported as -0.37. `O=C(CSc1nnc(NC(=O)c2ccc(S(=O)(=O)N3CCOCC3)cc2)s1)Nc1ccccc1C(F)(F)F` gave a z-score of -0.118. Molecule `Cc1cc(N)ccc1NC(=O)c1ccccc1` has a z-score of -0.132. With `c1cc2c(cc1C1=Nn3c(nnc3C3CCCCC3)SC1)OCO2` the z-score was -2.36. Molecule `Cn1c(-c2ccc(Cl)cc2)ccc(C#N)c1=O` has a z-score of -0.357. `O=C(Cc1cccs1)Nc1nncs1` was tested, and the z-score was -0.0193. In the case of `CC(C)(C)NC(=O)c1cccc(NC(=O)c2ccc(NC(=O)c3ccco3)cc2)c1`, the z-score is reported as -1.64. `Cn1c(SCc2cccc(Cl)c2)nc(C(F)(F)F)cc1=O` was tested, and the z-score was -0.00278. Work on `Cc1noc(C)c1C(=O)N(CC(=O)NC1CCCC1)Cc1ccccc1F` yielded a z-score of -0.119. With `COc1ccc(NC(=O)NC(C(F)(F)F)C(F)(F)F)cc1` the z-score was 0.138. `CCCCSc1[nH]c(=O)c(C(=O)OCC)cc1C#N` showed a z-score of -0.384. `C(=N\N(c1ccccc1)c1ccccc1)/c1ccc2c(c1)OCO2` showed a z-score of 0.209. In the case of `S=C(Nc1ccc(Cl)cc1Cl)Nn1cnnc1`, the z-score is reported as -0.274. `O=C(NCCC1=CCCCC1)C(=O)NCC(c1ccco1)N1CCN(c2ccccc2F)CC1` (stereo not drawn) gave a z-score of 0.333. `O=S(=O)(Nc1ccc2c(c1)nc1n2CCN(Cc2ccccc2)C1)c1ccccc1` was tested, and the z-score was -0.809. With `O=C1c2cccnc2C(=O)N1Cc1ccc(Cl)cc1` the z-score was -0.0604. `CC(=O)Oc1c(S(=O)(=O)c2ccccc2)c(C)nn1C(C)(C)C` gave a z-score of -0.232. `CCCOc1ccc([C@@H]2C3CN(C(=O)OCC)CC=C3C(C#N)=C(N)C2(C#N)C#N)cc1OC` (stereo partly drawn) showed a z-score of -0.338. `COC(=O)c1c(C)nc2c(c(SC)nn2-c2ccccc2)c1N` showed a z-score of -0.154. With `CC(C)CC(OC(=O)c1nsc(Cl)c1Cl)C(=O)NCc1cccs1` (stereo not drawn) the z-score was -0.428. With `COc1ccc(N(CC(=O)NCCSc2ccccn2)S(C)(=O)=O)cc1Cl` the z-score was -0.125. In the case of `O=C(Cc1cccs1)Nc1ccc(S(=O)(=O)Nc2ncccn2)cc1`, the z-score is reported as -0.256. `CC1=C(C(=O)OC(C)C)C(c2ccco2)NC(=O)N1` (stereo not drawn) gave a z-score of -0.0141. In the case of `CCOc1ccc(NC(=O)CS(=O)(=O)c2cn(C)c3ccccc23)cc1`, the z-score is reported as -0.209. `CC(=O)N1CCC2(CC1)CC(=O)c1cc(OCC(=O)NCc3ccco3)ccc1O2` was tested, and the z-score was 0.341. With `Cc1ccc(C(C(=O)NC2CCCCC2)N(C(=O)c2csnn2)C2CCCC2)o1` (stereo not drawn) the z-score was -0.708. With `O=C(NCCCCc1ccccc1)C1CC(c2cccc([N+](=O)[O-])c2)=NO1` (stereo not drawn) the z-score was -0.359. In the case of `Cc1cc(-c2csc(N)n2)c(C)n1CCC(C)C`, the z-score is reported as 0.22. `Cc1cc2oc(=O)cc(CSc3nc(N)cc(N)n3)c2cc1C` gave a z-score of -0.332. For `CNCc1ccccc1OCC(=O)Nc1ccccc1`, the z-score was 0.00673. In the case of `O=c1oc(-c2ccccc2NS(=O)(=O)c2ccccc2)nc2ccccc12`, the z-score is reported as -0.203. For `O=C(NCCC1=CCCCC1)C1CCCN(S(=O)(=O)c2cccc3cccnc23)C1` (stereo not drawn), the z-score was 0.877. In the case of `CCCN(C(=O)c1ccco1)c1nnc(-c2ccncc2)s1`, the z-score is reported as -0.618. `CN(C(=O)CSc1nc(-c2ccccc2)cn1N)C(c1ccccc1)c1ccccc1` gave a z-score of -0.238. `CC(CNC(=O)COc1ccccc1)OC(=O)Nc1ccc(Cl)c(Cl)c1` (stereo not drawn) was tested, and the z-score was -0.0649. `O=C(Nc1nccs1)c1cccc(S(=O)(=O)N2CCCCC2)c1` gave a z-score of -0.0477. In the case of `COc1ccc(OC)c(NC(=O)NC2(C(F)(F)F)Oc3ccccc3O2)c1`, the z-score is reported as -0.0406. With `O=C(CSc1ncc(-c2ccccc2)nn1)NCc1ccco1` the z-score was 1.16.
